# Assay results as given in the supplement of paper PMC8728848.
# The list shows a part of the results.
# B1: Hip/Pap (Homo sapiens), Q06141 (protein)
# chain: MLPPMALPSVSWMLLSCLMLLSQVQGEEPQRELPSARIRCPKGSKAYGSHCYALFLSPKSWTDADLACQKRPSGNLVSVLSGAEGSFVSSLVKSIGNSYSYVWIGLHDPTQGTEPNGEGWEWSSSDVMNYFAWERNPSTISSPGHCASLSRSTAFLRWKDYNCNVRLPYVCKFTD
# What was measured:
# Experiment in all cases: glycan array binding signal (z-score within array); higher = stronger binding
# Conditions in all cases: glycan notation: IUPAC condensed, linker removed
# Kdn(a2-3)Gal(b1-3)GlcNAc = biological target: Kdn(a2-3)Gal(b1-3)GlcNAc
# Outline: (§1)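 Arrays were curated from the Consortium for Functional Glycomics database, 3228 in total, and kept only where the protein sequence was available. Binding is expressed as a within-array Z-score. This score was averaged across arrays of the same protein sequence at different concentrations or buffers and across linkers, and negative values can be read as non-binding.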
# Kdn(a2-3)Gal(b1-4)GlcNAc = biological target: Kdn(a2-3)Gal(b1-4)GlcNAc
# Outline: as §1
# [1] = biological target: Man(a1-2)Man(a1-2)Man(a1-3)Man
# Outline: as §1
# [2] = biological target: Man(a1-2)Man(a1-2)Man(a1-6)[Man(a1-3)]Man
# Outline: as §1
# Man(a1-2)Man(a1-3)Man = biological target: Man(a1-2)Man(a1-3)Man
# Outline: as §1
# [3] = biological target: Man(a1-2)Man(a1-3)[Man(a1-2)Man(a1-6)]Man
# Outline: as §1
# [4] = biological target: Man(a1-2)Man(a1-3)[Man(a1-2)Man(a1-6)]Man(a1-6)[Man(a1-2)Man(a1-2)Man(a1-3)]Man(b1-4)GlcNAc(b1-4)GlcNAc
# Outline: as §1
# [5] = biological target: Man(a1-2)Man(a1-3)[Man(a1-2)Man(a1-6)]Man(a1-6)[Man(a1-3)[Man(a1-6)]Man(a1-6)]Man(b1-4)GlcNAc(b1-4)GlcNAc
# Outline: as §1
# [6] = biological target: Man(a1-2)Man(a1-3)[Man(a1-6)]Man(a1-6)[Man(a1-2)Man(a1-3)]Man(b1-4)GlcNAc(b1-4)GlcNAc
# Outline: as §1
# [7] = biological target: Man(a1-2)Man(a1-6)[Man(a1-3)]Man(a1-6)[Man(a1-2)Man(a1-2)Man(a1-3)]Man(b1-4)GlcNAc(b1-4)GlcNAc
# Outline: as §1
# Man(a1-3)[Man(a1-6)]Man = biological target: Man(a1-3)[Man(a1-6)]Man
# Outline: as §1
# [8] = biological target: Man(a1-3)[Man(a1-6)]Man(a1-6)[Man(a1-3)]Man(b1-4)GlcNAc(b1-4)GlcNAc
# Outline: as §1
# Neu5Ac(a2-3)Gal = biological target: Neu5Ac(a2-3)Gal
# Outline: as §1
# [9] = biological target: Neu5Ac(a2-3)Gal(b1-3)GalNAc
# Outline: as §1
# [10] = biological target: Neu5Ac(a2-3)Gal(b1-3)GalNAc6S
# Outline: as §1
# [11] = biological target: Neu5Ac(a2-3)Gal(b1-3)GlcNAc
# Outline: as §1
# [12] = biological target: Neu5Ac(a2-3)Gal(b1-3)[Fuc(a1-4)]GlcNAc
# Outline: as §1
# [13] = biological target: Neu5Ac(a2-3)Gal(b1-3)[Neu5Ac(a2-3)Gal(b1-4)]GlcNAc
# Outline: as §1
# [14] = biological target: Neu5Ac(a2-3)Gal(b1-3)[Neu5Ac(a2-6)]GalNAc
# Outline: as §1
# Neu5Ac(a2-3)Gal(b1-4)Glc = biological target: Neu5Ac(a2-3)Gal(b1-4)Glc
# Outline: as §1
# [15] = biological target: Neu5Ac(a2-3)Gal(b1-4)GlcNAc
# Outline: as §1
# [16] = biological target: Neu5Ac(a2-3)Gal(b1-4)GlcNAc(b1-3)Gal(b1-4)GlcNAc
# Outline: as §1
# [17] = biological target: Neu5Ac(a2-3)Gal(b1-4)GlcNAc(b1-3)Gal(b1-4)GlcNAc(b1-3)Gal(b1-4)GlcNAc
# Outline: as §1
# [18] = biological target: Neu5Ac(a2-3)Gal(b1-4)GlcNAc6S
# Outline: as §1
# [19] = biological target: Neu5Ac(a2-3)Gal(b1-4)[Fuc(a1-3)]GlcNAc
# Outline: as §1
# [20] = biological target: Neu5Ac(a2-3)Gal(b1-4)[Fuc(a1-3)]GlcNAc(b1-3)Gal
# Outline: as §1
# [21] = biological target: Neu5Ac(a2-3)Gal(b1-4)[Fuc(a1-3)]GlcNAc(b1-3)Gal(b1-4)GlcNAc
# Outline: as §1
# [22] = biological target: Neu5Ac(a2-3)Gal(b1-4)[Fuc(a1-3)]GlcNAc(b1-3)Gal(b1-4)[Fuc(a1-3)]GlcNAc(b1-3)Gal(b1-4)[Fuc(a1-3)]GlcNAc
# Outline: as §1
# [23] = biological target: Neu5Ac(a2-3)Gal(b1-4)[Fuc(a1-3)]GlcNAc6S
# Outline: as §1
# [24] = biological target: Neu5Ac(a2-3)Gal6S(b1-4)GlcNAc
# Outline: as §1
# Neu5Ac(a2-3)GalNAc = biological target: Neu5Ac(a2-3)GalNAc
# Outline: as §1
# [25] = biological target: Neu5Ac(a2-3)[GalNAc(b1-4)]Gal(b1-4)Glc
# Outline: as §1
# [26] = biological target: Neu5Ac(a2-3)[GalNAc(b1-4)]Gal(b1-4)GlcNAc
# Outline: as §1
# [27] = biological target: Neu5Ac(a2-3)[Neu5Ac(a2-6)]GalNAc
# Outline: as §1
# Neu5Ac(a2-6)Gal = biological target: Neu5Ac(a2-6)Gal
# Outline: as §1
# Neu5Ac(a2-6)Gal(b1-4)Glc = biological target: Neu5Ac(a2-6)Gal(b1-4)Glc
# Outline: as §1
# [28] = biological target: Neu5Ac(a2-6)Gal(b1-4)GlcNAc
# Outline: as §1
# [29] = biological target: Neu5Ac(a2-6)Gal(b1-4)GlcNAc(b1-3)Gal(b1-4)GlcNAc
# Outline: as §1
# [30] = biological target: Neu5Ac(a2-6)Gal(b1-4)GlcNAc(b1-3)Gal(b1-4)[Fuc(a1-3)]GlcNAc(b1-3)Gal(b1-4)[Fuc(a1-3)]GlcNAc
# Outline: as §1
# [31] = biological target: Neu5Ac(a2-6)Gal(b1-4)GlcNAc6S
# Outline: as §1
# Neu5Ac(a2-6)GalNAc = biological target: Neu5Ac(a2-6)GalNAc
# Outline: as §1
# Neu5Ac(a2-8)Neu5Ac = biological target: Neu5Ac(a2-8)Neu5Ac
# Outline: as §1
# [32] = biological target: Neu5Ac(a2-8)Neu5Ac(a2-3)Gal(b1-4)Glc
# Outline: as §1
# [33] = biological target: Neu5Ac(a2-8)Neu5Ac(a2-3)[GalNAc(b1-4)]Gal(b1-4)Glc
# Outline: as §1
# [34] = biological target: Neu5Ac(a2-8)Neu5Ac(a2-8)Neu5Ac
# Outline: as §1
# [35] = biological target: Neu5Ac(a2-8)Neu5Ac(a2-8)Neu5Ac(a2-3)Gal(b1-4)Glc
# Outline: as §1
# [36] = biological target: Neu5Ac(a2-8)Neu5Ac(a2-8)Neu5Ac(a2-3)[GalNAc(b1-4)]Gal(b1-4)Glc
# Outline: as §1
# Neu5Ac(b1-6)GalNAc = biological target: Neu5Ac(b1-6)GalNAc
# Outline: as §1
# [37] = biological target: Neu5Ac(b2-6)Gal(b1-4)GlcNAc
# Outline: as §1
# [38] = biological target: Neu5Ac9Ac(a2-6)Gal(b1-4)GlcNAc
# Outline: as §1
# [39] = biological target: Neu5Gc(a2-3)Gal(b1-3)GlcNAc
# Outline: as §1
# [40] = biological target: Neu5Gc(a2-3)Gal(b1-3)[Fuc(a1-4)]GlcNAc
# Outline: as §1
# Neu5Gc(a2-3)Gal(b1-4)Glc = biological target: Neu5Gc(a2-3)Gal(b1-4)Glc
# Outline: as §1
# [41] = biological target: Neu5Gc(a2-3)Gal(b1-4)GlcNAc
# Outline: as §1
# [42] = biological target: Neu5Gc(a2-3)Gal(b1-4)[Fuc(a1-3)]GlcNAc
# Outline: as §1
# [43] = biological target: Neu5Gc(a2-6)Gal(b1-4)GlcNAc
# Outline: as §1
# Neu5Gc(a2-6)GalNAc = biological target: Neu5Gc(a2-6)GalNAc
# Outline: as §1
binder,measurement,setting,value
B1,glycan array binding signal (z-score),Kdn(a2-3)Gal(b1-3)GlcNAc,-0.166
same,glycan array binding signal (z-score),Kdn(a2-3)Gal(b1-4)GlcNAc,-0.184
same,glycan array binding signal (z-score),[1],0.366
same,glycan array binding signal (z-score),[2],0.386
same,glycan array binding signal (z-score),Man(a1-2)Man(a1-3)Man,-0.027
same,glycan array binding signal (z-score),[3],0.58
same,glycan array binding signal (z-score),[4],-0.051
same,glycan array binding signal (z-score),[5],-0.059
same,glycan array binding signal (z-score),[6],-0.033
same,glycan array binding signal (z-score),[7],0.171
same,glycan array binding signal (z-score),Man(a1-3)[Man(a1-6)]Man,0.151
same,glycan array binding signal (z-score),[8],-0.183
same,glycan array binding signal (z-score),Neu5Ac(a2-3)Gal,-0.153
same,glycan array binding signal (z-score),[9],-0.18
same,glycan array binding signal (z-score),[10],-0.172
same,glycan array binding signal (z-score),[11],-0.171
same,glycan array binding signal (z-score),[12],-0.166
same,glycan array binding signal (z-score),[13],0.71
same,glycan array binding signal (z-score),[14],-0.181
same,glycan array binding signal (z-score),Neu5Ac(a2-3)Gal(b1-4)Glc,-0.174
same,glycan array binding signal (z-score),[15],-0.068
same,glycan array binding signal (z-score),[16],-0.142
same,glycan array binding signal (z-score),[17],-0.133
same,glycan array binding signal (z-score),[18],-0.057
same,glycan array binding signal (z-score),[19],-0.143
same,glycan array binding signal (z-score),[20],-0.134
same,glycan array binding signal (z-score),[21],-0.145
same,glycan array binding signal (z-score),[22],-0.133
same,glycan array binding signal (z-score),[23],-0.04
same,glycan array binding signal (z-score),[24],-0.188
same,glycan array binding signal (z-score),Neu5Ac(a2-3)GalNAc,-0.184
same,glycan array binding signal (z-score),[25],-0.179
same,glycan array binding signal (z-score),[26],-0.173
same,glycan array binding signal (z-score),[27],-0.168
same,glycan array binding signal (z-score),Neu5Ac(a2-6)Gal,-0.176
same,glycan array binding signal (z-score),Neu5Ac(a2-6)Gal(b1-4)Glc,-0.173
same,glycan array binding signal (z-score),[28],-0.177
same,glycan array binding signal (z-score),[29],-0.154
same,glycan array binding signal (z-score),[30],-0.065
same,glycan array binding signal (z-score),[31],-0.161
same,glycan array binding signal (z-score),Neu5Ac(a2-6)GalNAc,-0.158
same,glycan array binding signal (z-score),Neu5Ac(a2-8)Neu5Ac,-0.177
same,glycan array binding signal (z-score),[32],-0.167
same,glycan array binding signal (z-score),[33],-0.174
same,glycan array binding signal (z-score),[34],-0.189
same,glycan array binding signal (z-score),[35],-0.169
same,glycan array binding signal (z-score),[36],-0.159
same,glycan array binding signal (z-score),Neu5Ac(b1-6)GalNAc,-0.175
same,glycan array binding signal (z-score),[37],-0.142
same,glycan array binding signal (z-score),[38],-0.128
same,glycan array binding signal (z-score),[39],-0.169
same,glycan array binding signal (z-score),[40],-0.15
same,glycan array binding signal (z-score),Neu5Gc(a2-3)Gal(b1-4)Glc,-0.171
same,glycan array binding signal (z-score),[41],-0.181
same,glycan array binding signal (z-score),[42],-0.149
same,glycan array binding signal (z-score),[43],-0.189
same,glycan array binding signal (z-score),Neu5Gc(a2-6)GalNAc,-0.16
